The whole screen tested about 310,000 compounds, of which about 14,000 (4.5%) showed an effect of 50% or more. The effect is printed as a negative number. This is one part of the list.
molecular target: human ether-à-go-go-related gene (hERG) potassium channel (human, UniProt Q12809); assay: primary screen, population patch clamp on CHO cells stably expressing hERG
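Further: peak tail current of the secondary pulse compared with the same well before compound.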

Sequence of human ether-à-go-go-related gene (hERG) potassium channel (Q12809 whole entry, looked up): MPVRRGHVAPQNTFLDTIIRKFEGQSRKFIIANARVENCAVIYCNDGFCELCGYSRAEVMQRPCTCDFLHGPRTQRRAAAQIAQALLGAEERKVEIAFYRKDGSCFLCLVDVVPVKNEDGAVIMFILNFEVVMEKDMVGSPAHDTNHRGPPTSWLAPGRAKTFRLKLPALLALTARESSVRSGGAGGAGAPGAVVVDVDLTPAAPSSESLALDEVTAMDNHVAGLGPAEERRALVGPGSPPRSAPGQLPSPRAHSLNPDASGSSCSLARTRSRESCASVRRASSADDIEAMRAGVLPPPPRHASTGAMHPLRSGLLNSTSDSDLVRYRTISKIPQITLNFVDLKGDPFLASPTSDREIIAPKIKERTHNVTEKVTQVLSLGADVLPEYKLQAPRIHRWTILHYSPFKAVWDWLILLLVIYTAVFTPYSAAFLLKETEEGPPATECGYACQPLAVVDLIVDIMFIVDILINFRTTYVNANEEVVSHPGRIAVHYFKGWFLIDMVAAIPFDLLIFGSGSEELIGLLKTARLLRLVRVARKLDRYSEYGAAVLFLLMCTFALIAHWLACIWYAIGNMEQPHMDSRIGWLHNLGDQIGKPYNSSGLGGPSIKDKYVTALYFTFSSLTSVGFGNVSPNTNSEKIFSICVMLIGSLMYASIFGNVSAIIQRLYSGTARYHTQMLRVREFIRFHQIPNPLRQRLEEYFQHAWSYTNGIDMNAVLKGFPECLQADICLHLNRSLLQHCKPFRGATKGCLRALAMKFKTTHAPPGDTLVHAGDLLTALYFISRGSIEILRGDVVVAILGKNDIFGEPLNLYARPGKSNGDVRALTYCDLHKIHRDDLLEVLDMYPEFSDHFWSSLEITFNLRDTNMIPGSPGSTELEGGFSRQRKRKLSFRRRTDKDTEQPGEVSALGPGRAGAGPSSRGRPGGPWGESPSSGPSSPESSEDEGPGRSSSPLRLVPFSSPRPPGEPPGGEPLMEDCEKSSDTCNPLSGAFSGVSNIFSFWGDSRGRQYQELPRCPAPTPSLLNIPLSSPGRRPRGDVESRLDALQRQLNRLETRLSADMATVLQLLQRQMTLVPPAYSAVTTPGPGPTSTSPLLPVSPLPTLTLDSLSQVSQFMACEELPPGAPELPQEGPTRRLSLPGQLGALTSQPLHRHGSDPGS

| SMILES | hERG current change (%, negative = inhibition) at 10uM [%] |
| --- | --- |
| CCc1nc(CN(C)C(=O)C2CCC(=O)N(Cc3cccc(F)c3)C2)no1 (stereo not shown) | 3.44 |
| Cc1cc(Br)ccc1S(=O)(=O)n1ccnc1C | -1.89 |
| COc1cccc(C(=O)N/N=C/c2cn[nH]c2-c2ccc(OC)cc2OC)c1 | -5.87 |
| CN(C)C(=O)c1ccc(Nc2ncnc3sc4c(c23)CCCCC4)cc1 | -22.3 |
| Cn1cccc1CC(=O)NNC(=S)NC(=O)c1ccc(F)cc1 | -10.6 |
| CCC(C)NC(=O)C1CCN(S(=O)(=O)c2ccc3c(c2)CC(C)N3C(C)=O)CC1 (stereo not shown) | 1.35 |
| CC1=CCC2(CO)COC(c3ccccc3O)C1C2 (stereo not shown) | -6.82 |
| COc1ccc(CN2CCC(n3nccc3NC(=O)C3CC3)CC2)c(OC)c1OC | -51.4 |
| CCCc1nnc(NC(=O)C2CC(=O)N(C3CCCC3)C2)s1 (stereo not shown) | 10.6 |
| Cl.c1ccc(CN(CC2=NCCN2)c2ccccc2)cc1 | -29.7 |
| CN(C)c1ccc(/C=C/C#N)cc1 | -4.61 |
| O=C(CCN1C(=O)C2CCCCC2C1=O)Nc1nc2c(F)cc(F)cc2s1 (stereo not shown) | 11.7 |
| CN1C(=O)NC(c2cccc([N+](=O)[O-])c2)C2=C1CC(C)(C)CC2=O (stereo not shown) | 9.63 |
| C/C(=N/NC(=O)c1nnn(-c2nonc2N)c1COc1ccccc1)c1ccccc1 | 10.2 |
| Cc1cc(C)n(-c2cccc3cccnc23)n1 | 14.5 |
| CC(=O)c1c(C)oc2ccc(N(C(C)=O)S(=O)(=O)c3ccc(Cl)c([N+](=O)[O-])c3)cc12 | 6.82 |
| COc1ccccc1C1CC(c2ccc(Cl)cc2)Nc2ncnn21 (stereo not shown) | -44.8 |
| Cc1c(N(CC(=O)O)S(=O)(=O)c2ccccc2)c(=O)n(-c2ccccc2)n1C | 24.5 |
| Cc1noc(C)c1CCC(=O)NC1CCCN(Cc2ccc(CC(C)C)cc2)C1 (stereo not shown) | -66.8 |
| Cc1ccc2c(c1)c1c3n2CCN(CC(N)=O)C3CCC1 (stereo not shown) | 25.6 |

| SMILES | hERG current change (%, negative = inhibition) at 10uM [%] |
| --- | --- |
| COc1ccc2sc(-c3ccccc3OC)c(-c3ccc4c(c3)OCCO4)c2c1 | 17.2 |
| COc1ccc(-c2n[nH]c(=S)n2Cc2ccccc2)cc1 | -5.21 |
| Cc1ccc(C(=O)CSc2n[nH]c(C)n2)cc1 | 12.7 |
| Cc1ccccc1N=Cc1cc2c(cc1O)OC(N)=C(C#N)C2c1ccccc1 (stereo not shown) | -1.79 |
| CO/N=C/c1c(C(=O)OC)nn(-c2ccccc2)c1Cl | 7.68 |
| CCOC(=O)c1cn(Cc2ccc(C)cc2)nn1 | 6.34 |
| COc1ccc(CN2CCN(C(=O)CCC(=O)Nc3nnc(C(C)C)s3)CC2)cc1F | -6.95 |
| Cc1ccccc1NC(=O)C(=O)NCCc1ccccc1 | 8.13 |
| O=C(NC(=S)N1CCOCC1)C12CC3CCC(CC(C3)C1)C2 | 13.2 |
| O=C(CN1CCOCC1)Nc1ccccc1F | 0.862 |
| O=C(O)c1ccccc1-c1ccccc1C(=O)Nc1cccc(Br)c1 | 8.66 |
| Cl.O=C(NCCCn1ccnc1)C1c2ccccc2Oc2ccccc21 | -20.1 |
| CCC(C)(C)n1nnnc1C(c1ccccc1)N1CCc2ccccc2C1 (stereo not shown) | -18.9 |
| CSc1nc2c(c(=O)[nH]1)C(c1cccs1)C1=C(CCCC1=O)N2 (stereo not shown) | 4.91 |
| CCn1cc(C(=O)NCCCN2CC(C)CC(C)C2)c(=O)c2cc(S(=O)(=O)N(C)C)ccc21 (stereo not shown) | -55.5 |
| COc1cc2ncnc(NCc3ccccc3F)c2cc1OC | 6.91 |
| CC(C)C[C@@H](COc1ccccc1)N1CCN(CC(C)C)CCC1=O | -48.5 |
| CCN(CC)S(=O)(=O)c1ccc(NN=c2c(=O)c3ccccc3c2=O)cc1 | -0.653 |
| CC(C)(C)c1cc(C(=O)N/N=C/c2ccccn2)n[nH]1 | 0.82 |
| O=C(CSc1cccc[n+]1[O-])C12CC3CC(CC(C3)C1)C2 | 9.58 |

| SMILES | hERG current change (%, negative = inhibition) at 10uM [%] |
| --- | --- |
| CCN1C(=O)C(O)(CC(=O)C(C)(C)C)c2cc(Br)ccc21 (stereo not shown) | 4.25 |
| Br.Cn1nc(-c2ccc(OCC(=O)N3CCN(Cc4ccccc4)CC3)cc2)c2ccccc2c1=O | -42.2 |
| NC(=O)CC(NC(=O)c1ccc(Br)cc1)c1ccc(NC2CCCCCCC2)c([N+](=O)[O-])c1 (stereo not shown) | 2.85 |
| Cc1ccc(-c2nnc(N3CCCCC3)c3ccccc23)cc1S(=O)(=O)NCC1CCCO1 (stereo not shown) | -16 |
| O=c1c2[nH]c3ccc(F)cc3c2ncn1CCN1CCOCC1 | -41.1 |
| COc1cccc(C(=O)N2CCSC2=S)c1 | -4.11 |
| COc1cc(SC)ccc1C(=O)OC(C)C(=O)Nc1ccc(NC(C)=O)cc1 (stereo not shown) | 1.82 |
| COc1ccc(CCNC2=CC(=O)N(c3ccc(F)cc3)C2=O)cc1 | 11.3 |
| Cc1cccn2c(=O)c3cc(C(=O)NCCCOC(C)C)sc3nc12 | -6.24 |
| COc1ccc(/C=C2\N=C3CCCCCN3C2=O)cc1 | -14.2 |
| CN(C)C(=O)CN1c2cccc3cccc(c23)S1(=O)=O | 14.8 |
| Cc1ccc(OCC(=O)N/N=C/c2ccco2)cc1 | -29.5 |
| Cc1ccccc1NC(=O)NCC1CCN(c2ccc(S(=O)(=O)N3CCOCC3)cc2)CC1 | -1.19 |
| CN1CCC(OC(=O)COc2ccccc2)CC1.Cl | 15.1 |
| COc1ccc(-c2cc3nc(C)c(CCC(=O)N4CCN(c5ccccn5)CC4)c(C)n3n2)c(OC)c1 | -36 |
| Fc1ccc(-n2c(-c3ccco3)n[nH]c2=S)cc1 | 28 |
| CCN(c1ccccc1)S(=O)(=O)c1ccc(Cl)c(C(=O)NCc2ccco2)c1 | -46.3 |
| Cc1[nH]nc(SCC(=O)Nc2cccc(O)c2)c1[N+](=O)[O-] | 27.9 |

Source: article PMC4336329 (PLoS ONE, 2015)
